Screen size: about 350,000 compounds; about 9,900 (2.8%) were called active. Inconclusive results, whose numbers are uncertain, are shown with a selection of clear calls. Calls follow the shape of the dose curve; as a rule, active = well fitted activation curve with a large enough effect; inconclusive = small, poorly fitted or top-dose-only effect; inactive = no such curve, though single readings can be large or run the other way. Potencies of inconclusive entries are left out as doubtful fits.
Experiment: A quantitative high throughput screen for small molecules that induce DNA re-replication in MCF 10a normal breast cells. Also: nearly all actives have a fitted effect of over 50% in size. As to activity, positive = re-replication: % of control where 0% means no effect.
Details: MCF 10A DNA re-replication, Hoechst nuclear intensity, 48 h; activity, positive = re-replication: at 46.1 µM (top of the series)
With `COc1ccc(S(=O)(=O)N2CCOCC2)cc1NC(=O)CC(C)c1ccccc1` (stereo not given) the “activity, positive = re-replication” value was inactive: -1.55%.
For `O=C1CN(C(=O)c2ccc(Cl)c(S(=O)(=O)N3CCc4ccccc43)c2)c2ccccc2N1`, the Potency was inconclusive [activator, partial curve, poor fit].
With `CN(Cc1ccccc1)C(=O)c1[nH]cnc1C(=O)Nc1nccs1` the Potency was inconclusive [activator, single point].
With `Cc1onc(-c2ccccc2Cl)c1C(=O)Nc1sc2c(c1C#N)CCC2` the Potency was inconclusive [activator, single point].
For `CCC(=O)Oc1ccc2c(C)cc(=O)oc2c1C`, the “activity, positive = re-replication” value was inactive: -4.55%.
With `Oc1ccc(/C=N/Nc2nc(N3CCCCCC3)nc(N3CCCCCC3)n2)c(O)c1` the Potency was inconclusive [activator, single point].
With `COC(=O)C1=C(C)NC(C)=C(C(=O)OCCN2CCN(C(c3ccccc3)c3ccccc3)CC2)C1c1cccc([N+](=O)[O-])c1` (stereo not given) the Potency was inconclusive [activator, single point].
In the case of `COC(=O)c1ccc(-c2csc(NC(=O)c3ccc(S(=O)(=O)N4CCc5ccccc5C4)cc3)n2)cc1`, the “activity, positive = re-replication” value is reported as inactive: -2.31%.
For `COc1ccc(N(C(=O)c2cccnc2)S(=O)(=O)c2cccs2)cc1`, the activity, positive = re-replication was inconclusive: 74.5% [activator].
For `Cc1ccc2nc(SCC(=O)Nc3ccccc3N3CCOCC3)c(C#N)cc2c1`, the Potency was inconclusive [activator, full curve, poor fit].
For `CCOC(=O)C1=C(C)N=c2s/c(=C\c3ccc(OCC(=O)O)c(OC)c3)c(=O)n2C1c1ccc(OC)cc1` (stereo not given), the Potency was active: 23.1 µM.
For `CN1CCN(c2nc(-c3ccccc3Cl)nc3ccccc23)CC1`, the Potency was inconclusive [activator, single point].
In the case of `COc1ccc(CCN(C)C(=S)NC(=O)c2ccc(F)cc2Cl)cc1OC`, the “activity, positive = re-replication” value is reported as inactive: -6.16%.
With `CC(C)C(=O)NC(c1ccccc1)c1cc([N+](=O)[O-])c2cccnc2c1O` (stereo not given) the Potency was inconclusive [activator, full curve, poor fit].
For `C[C@H]1CN([C@@H](C)CO)C(=O)Cc2cc(NC(=O)CCN3CCOCC3)ccc2O[C@@H]1CN(C)Cc1ccc(Oc2ccccc2)cc1`, the Potency was inconclusive [activator, single point].
In the case of `O=C(CSc1nc2ccccc2s1)CSc1nc2ccccc2s1`, the “activity, positive = re-replication” value is reported as inactive: 2.68%.
For `CCOC(=O)N1CCN(Cc2cc(=O)oc3ccc(Cl)cc23)CC1`, the “activity, positive = re-replication” value was inactive: 5.97%.
In the case of `CCOC(=O)CNC(=S)N(Cc1cccs1)C1CCCC1`, the Potency is reported as inconclusive [activator, partial curve, poor fit].
In the case of `CCOC(=O)C1CCCN(Cc2nc(N)nc(Nc3ccccc3)n2)C1` (stereo not given), the Potency is reported as inconclusive [activator, partial curve, poor fit].
With `O=C(CNC(=O)c1ccc2c(c1)OCCO2)N/N=C/c1ccc(O)cc1O` the Potency was inconclusive [activator, partial curve, poor fit].
For `O=C1[C@@H]2Cc3ccccc3CN2C(=O)N1c1cccc(F)c1`, the “activity, positive = re-replication” value was inactive: 16.3%.
For `COC(=O)c1ccc(OC(=O)c2ccc(OC)c(OC)c2)c(OC)c1`, the Potency was inconclusive [activator, partial curve, poor fit].
For `COc1ccc(-c2cc(C(F)(F)F)nc(SCC(=O)Nc3cc(C)on3)n2)cc1`, the Potency was inconclusive [activator, partial curve, poor fit].
For `C[N+](C)(C)CCN(Cc1ccc(Cl)cc1)c1ccccn1`, the “activity, positive = re-replication” value was inactive: 6.09%.
For `CC1(C)[C@@H]2CC[C@@]1(C)C(=O)C2`, the “activity, positive = re-replication” value was inactive: 10.6%.
With `Cc1[nH]c2ccccc2c1/C=C(\C#N)S(=O)(=O)c1ccccc1` the “activity, positive = re-replication” value was inactive: 2.66%.
With `CCN(CC)CCCN1C(=O)c2oc3ccccc3c(=O)c2C1c1cccnc1` (stereo not given) the “activity, positive = re-replication” value was inactive: 21.3%.
For `COc1ccc(N=C/C=C2\C=C(c3ccccc3)OC(C)(C)O2)cc1`, the Potency was inconclusive [activator, single point].
In the case of `COc1ccc(N2CCN(Cc3nc4ccccc4n3C)CC2)cc1`, the “activity, positive = re-replication” value is reported as inactive: -3.93%.
In the case of `CCOc1c(Cl)cc(CNC(C)(C)CC(C)(C)C)cc1OC`, the Potency is reported as active: 8.2 µM.
For `Cc1cc(C)nc(SCC(=O)Nc2nc(-c3ccccc3)c(-c3ccccc3)o2)n1`, the Potency was inconclusive [activator, single point].
In the case of `COc1cc(OC)cc(OC(=O)C2CCN(S(=O)(=O)c3ccc(OC)c(OC)c3)CC2)c1`, the “activity, positive = re-replication” value is reported as inactive: 1.81%.
With `CCN(CC)C1CC(=O)N(c2ccc(Br)cc2)C1=O` (stereo not given) the Potency was inconclusive [activator, single point].
For `COc1ccc(C(=O)N/N=C/c2ccc(OC)c(COc3ccc(F)cc3)c2)cc1`, the Potency was inconclusive [activator, partial curve, poor fit].
For `COC(=O)c1[nH]c2cc(C)ccc2c1NC(=O)CN1CCOCC1`, the “activity, positive = re-replication” value was inactive: 2%.
With `COc1cc(OC)cc(N2CCN(S(=O)(=O)c3ccc(-n4cnnn4)cc3)CC2)c1` the “activity, positive = re-replication” value was inactive: 2.48%.
In the case of `O=C(C1=C[C@H](c2coc3ccccc3c2=O)C[C@H](OCCCCO)O1)N1CCOCC1`, the Potency is reported as inconclusive [activator, full curve, poor fit].
With `Nn1c(COc2ccccc2F)nnc1SCC(=O)NC1CCCC1` the “activity, positive = re-replication” value was inactive: 0.0606%.
In the case of `Cc1nnsc1C(=O)N/N=C/c1ccc2ccccc2c1O`, the Potency is reported as inconclusive [activator, full curve, poor fit].
With `CCCCN(Cc1ccccc1)C(=O)CCN1C(=O)C2C3C=CC(C3)C2C1=O` (stereo not given) the Potency was inconclusive [activator, single point].
For `O=C1CCC(C(=O)OCC(=O)c2ccccc2)N1` (stereo not given), the “activity, positive = re-replication” value was inactive: -2.62%.
In the case of `CN1C[C@@H]2[C@@H]3C(=O)N(C)C(=O)[C@@H]3[C@](C)(C1=O)N2C(=O)c1ccc(Br)cc1`, the activity, positive = re-replication is reported as inconclusive: -55.3% [activator].
For `Cc1cc2ccccn2c1C(=O)c1cc([N+](=O)[O-])cc([N+](=O)[O-])c1`, the Potency was inconclusive [activator, single point].
In the case of `c1ccc(-c2csc(N3CCOCC3)n2)cc1`, the “activity, positive = re-replication” value is reported as inactive: 10%.
In the case of `O=[N+]([O-])c1cc(C(F)(F)F)cc([N+](=O)[O-])c1NCCNC(=S)Nc1ccc(Cl)c(Cl)c1`, the Potency is reported as inconclusive [activator, single point].

Source: PubChem BioAssay AID624296 (National Center for Advancing Translational Sciences (NCATS), 2012)
Potency is read from the fitted curve at half-maximal effect; tags tell the direction and shape of the fitted curve.
